This note sets out measurements from PMC4196162.

No constants are given. Whether binding was seen depends on the method and setting. In cells and extracts the contact can be indirect. Some results given as binding are weak or reduced against the parent protein; the word gives no strength.

The target of assay [1] is T1, Pygo2 (human (endogenous in MCF7 and T47D)) (UniProt Q9BRQ0).
T1 sequence: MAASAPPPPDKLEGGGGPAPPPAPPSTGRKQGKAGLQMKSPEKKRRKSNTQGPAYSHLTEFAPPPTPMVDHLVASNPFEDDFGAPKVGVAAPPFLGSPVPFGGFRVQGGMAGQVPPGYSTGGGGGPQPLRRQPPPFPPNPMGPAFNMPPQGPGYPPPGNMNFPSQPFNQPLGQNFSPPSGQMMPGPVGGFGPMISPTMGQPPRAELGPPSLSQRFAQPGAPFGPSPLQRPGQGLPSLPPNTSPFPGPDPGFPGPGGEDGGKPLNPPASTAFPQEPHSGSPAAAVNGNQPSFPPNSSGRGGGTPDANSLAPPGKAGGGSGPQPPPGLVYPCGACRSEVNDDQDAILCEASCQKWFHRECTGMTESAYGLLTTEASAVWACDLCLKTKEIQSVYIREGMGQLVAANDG
Description: co-IP; endogenous proteins, T47D whole cell lysates, Protein A sepharose; Western blot.

Assay [2] has as its target T1, Pygo2 (human (endogenous in MCF7 and T47D)). Description: co-IP; endogenous proteins, MCF7 whole cell lysates, Protein A sepharose; mouse and rabbit IgG as negative controls; Western blot. (A western blot detects proteins with antibodies after separation by electrophoresis.)

B1: BCL9-2 (BCL9L, B-Cell Lymphoma 9-like) (protein, UniProt Q86UU0 1-1499)
chain: MRILANKTRLPHPRRREAPGSPPLSPRGHCPPAPAKPMHPENKLTNHGKTGNGGAQSQHQNVNQGPTCNVGSKGVGAGNHGAKANQISPSNSSLKNPQAGVPPFSSLKGKVKRDRSVSVDSGEQREAGTPSLDSEAKEVAPRSKRRCVLERKQPYSGDEWCSGPDSEEDDKPIGATHNCNVADPAMAAPQLGPGQTTQLPLSESSVPGAPHGPPPGLRPDAPGGGGGGGGVPGKPPSQFVYVFTTHLANTAAEAVLQGRADSILAYHQQNVPRAKLDQAPKVPPTPEPLPLSTPSAGTPQSQPPPLPPPPPPAPGSAPPALPPEGPPEDSSQDLAPNSVGAASTGGGTGGTHPNTPTATTANNPLPPGGDPSSAPGPALLGEAAAPGNGQRSLVGSEGLSKEQLEHRERSLQTLRDIERLLLRSGETEPFLKGPPGGAGEGGPPAQAPPPPQQPPTAPPSGLKKYEEPLQSMISQTQSLGGPPLEHEVPGHPPGGDMGQQMNMMIQRLGQDSLTPEQVAWRKLQEEYYEEKRRKEEQIGLHGSRPLQDMMGMGGMMVRGPPPPYHSKPGDQWPPGMGAQLRGPMDVQDPMQLRGGPPFPGPRFPGNQIQRVPGFGGMQSMPMEVPMNAMQRPVRPGMGWTEDLPPMGGPSNFAQNTMPYPGGQGEAERFMTPRVREELLRHQLLEKRSMGMQRPLGMAGSGMGQSMEMERMMQAHRQMDPAMFPGQMAGGEGLAGTPMGMEFGGGRGLLSPPMGQSGLREVDPPMGPGNLNMNMNVNMNMNMNLNVQMTPQQQMLMSQKMRGPGDLMGPQGLSPEEMARVRAQNSSGVMGGPQKMLMPSQFPNQGQQGFSGGQGPYQAMSQDMGNTQDMFSPDQSSMPMSNVGTTRLSHMPLPPASNPPGTVHSAPNRGLGRRPSDLTISINQMGSPGMGHLKSPTLSQVHSPLVTSPSANLKSPQTPSQMVPLPSANPPGPLKSPQVLGSSLSVRSPTGSPSRLKSPSMAVPSPGWVASPKTAMPSPGVSQNKQPPLNMNSSTTLSNMEQGTLPPSGPRSSSSAPPANPPSGLMNPSLPFTSSPDPTPSQNPLSLMMTQMSKYAMPSSTPLYHNAIKTIATSDDELLPDRPLLPPPPPPQGSGPGISNSQPSQMHLNSAAAQSPMGMNLPGQQPLSHEPPPAMLPSPTPLGSNIPLHPNAQGTGGPPQNSMMMAPGGPDSLNAPCGPVPSSSQMMPFPPRLQQPHGAMAPTGGGGGGPGLQQHYPSGMALPPEDLPNQPPGPMPPQQHLMGKAMAGRMGDAYPPGVLPGVASVLNDPELSEVIRPTPTGIPEFDLSRIIPSEKPSSTLQYFPKSENQPPKAQPPNLHLMNLQNMMAEQTPSRPPNLPGQQGVQRGLNMSMCHPGQMSLLGRTGVPPQQGMVPHGLHQGVMSPPQGLMTQQNFMLMKQRGVGGEVYSQPPHMLSPQGSLMGPPPQQNLMVSHPLRQRSVSLDSQMGYLPAPGGMANLPF
Turning to B1, the binding result in assay [1] and in assay [2] was “binds” in each case.
